In ChEMBL document CHEMBL4888484, “Replenishing the malaria drug discovery pipeline: Screening and hit evaluation of the MMV Hit Generation Library 1 (HGL1) against asexual blood stage Plasmodium falciparum ,using a nano luciferase reporter read-out” (2022):
Screen size: about 150,000 compounds; about 540 (0.36%) showed an effect of 50% or more. This is one part of the list.

Tested on: Plasmodium falciparum
Assay: Primary screen in NF54 nanoGlo assay, in single point, at 2uM, 72h; a lower Z score goes with more inhibition
Type: functional, Erythrocyte
Conditions: timepoint 72 hour

Row | Compound | % Inhibition [%] | Z score
1 | Cc1ccc(C(=O)N2CCC(C3(c4ccccn4)NC(=O)N(CC4CCCO4)C3=O)CC2)c(C)c1 (stereo not given) | -3 | 0.62
2 | CCc1nc(-c2ccc(-c3noc(Cc4cccc(OC)c4)n3)cc2)cs1 | -10 | 0.98
3 | O=C(Cc1c(Cl)cccc1Cl)Nc1cccc(C(=O)NC2CC2)c1 | 0 | 0.06
4 | COCC(=O)N1CCC(C)C(CNC(=O)OC(C)(C)C)C1 (stereo not given) | -1 | 0.11
5 | Cc1nn(CCCNC(=O)c2c(C)ncn2C)c(C)c1C | -1 | 0.19
6 | CN(Cc1cccc2[nH]ccc12)CC1(CO)CCCC1 | 21 | -2.61
7 | COCCC(=O)N[C@H]1CC(=O)N(C2Cc3ccccc3C2)C1 | -4 | 0.71
8 | Cc1csc(C(=O)N2CCc3nc(NC(=O)c4cnccn4)sc3C2)c1 | -2 | 0.33
9 | CC12CC(CN1S(=O)(=O)CCc1ccc(F)cc1)C2 | -4 | 0.74
10 | CCC(=O)Nc1nc2ccc(NC(=O)Nc3cccc(Cl)c3)cc2s1 | -6 | 0.96
11 | CC(=O)N1C[C@H]2CC[C@@H](C1)N(Cc1ccc(F)c(Cl)c1F)C2 | -1 | 0.15
12 | CN(Cc1csc(-c2ccccc2)n1)Cc1noc([C@@H]2CCCO2)n1 | -13 | 1.42
13 | O=C(Nc1ccc2[nH]c(=O)[nH]c2c1)c1cc2c(s1)CCC2 | 16 | -1.86
14 | CC1(CNC(=O)N2CCCC(CO)C2)CCCc2ccccc21 (stereo not given) | -7 | 0.87
15 | O=C(NCCN1CCOCC1)C1CC1c1cccc2ccccc12 (stereo not given) | -6 | 0.74
16 | CC1(C)CN(C(=O)c2csc(C(F)(F)F)n2)[C@H]1C1CC1 | 1 | -0.21
17 | NS(=O)(=O)c1ccc(CNS(=O)(=O)N2CCc3ccccc3C2)cc1 | 4 | -0.53
18 | CCC(=O)N1CCC(c2noc(COc3cccnc3)n2)CC1 | -16 | 2.04
19 | C[C@H](O)CNc1ncc(Br)cc1Cl | -5 | 0.74
20 | Cc1ccc(C)c(N2CCN(S(=O)(=O)c3cc(-c4cc(C)no4)ccc3C)CC2)c1 | -10 | 1.33
21 | Cc1nc(-c2cccs2)sc1C(=O)N1CCC2(CC1)NC(=O)NC2=O | 18 | -2.27
22 | COc1cc(C)cc(C(=O)N2CCO[C@H](c3nccs3)C2)c1O | -7 | 0.97

Row | Compound | % Inhibition [%] | Z score
23 | C[C@@H](c1nc(Cc2cccs2)nn1C(C)(C)C)n1cncn1 | 6 | -0.9
24 | O=C(NCc1ccccc1F)C1Cc2cc(C(F)(F)F)ccc2N2CCN(c3ccccc3F)CC12 (stereo not given) | 3 | -0.32
25 | Cc1ccc(S(=O)(=O)N2CC3CN(C(=O)CNC(=O)c4ccccc4)CC(C2)O3)cc1 | -24 | 2.15
26 | FC(F)c1nnc2n1CCN(c1nc(CC3CC3)ns1)C2 | -4 | 0.61
27 | Cc1c(C(=O)N(Cc2ccccc2)[C@H]2CCS(=O)(=O)C2)oc2ccccc12 | 7 | -1.27
28 | C[C@@H](C(=O)N1Cc2cncnc2C1)c1ccccc1 | 2 | -0.42
29 | COc1cccc(CNC(=O)[C@@H]2CCCN2c2nnc(N3CCCCC3=O)s2)c1 | -12 | 2.2
30 | Cc1cccc2[nH]c(CNC(=O)N3CCCC(C4CCCCO4)C3)nc12 (stereo not given) | 9 | -1.68
31 | CN(C)S(=O)(=O)NC1(C)CCCCCC1 | 8 | -1.18
32 | c1ccc([C@H](CCn2cncn2)NC2CCN(c3ccc4c(c3)OCO4)CC2)cc1 | -2 | 0.35
33 | O=C([C@@H]1CC=CCC1)N1CC(Nc2cccnn2)C1 | -7 | 0.85
34 | CCn1cnnc1CNC(=O)OCC1CCCCC1 | 15 | -1.8
35 | CC[C@H]1CCCCCN1C(=O)NCCOC | -7 | 1.02
36 | CC(C)N[C@H]1[C@H](O)[C@@H](n2cnc3ccccc32)[C@@H]2OC[C@H]1O2 | 31 | -3.54
37 | COc1ccc(C)cc1S(=O)(=O)[C@H]1CS(=O)(=O)C[C@@H]1N1CCC(C(N)=O)CC1 | -10 | 1.35
38 | COCCNC(=O)c1cccnc1Oc1cccc(NS(=O)(=O)c2ccccc2)c1 | -1 | 0.18
39 | CCc1ccc(S(=O)(=O)N2CCN(c3ccc(-c4cccs4)nn3)CC2)s1 | -12 | 1.86
40 | O=C(NC(Cc1ccccc1)c1cccs1)C1COCCO1 (stereo not given) | -13 | 2.36
41 | Cc1cc(C(=O)N2CC(c3nc(C4CC4)no3)C2)c(C)o1 | -10 | 1.98
42 | O=C(CN1C[C@@H]2CC[C@H]1CN(Cc1cscn1)C2)N1CCc2ccccc21 | -1 | 0.08
43 | N#CCCNC[C@H]1CN(C2CC2)CCO1 | -6 | 0.57
44 | Cc1ccc2nc(N3CCC[C@H](O)C3)c(CN3CCCN(C)CC3)cc2c1 | -6 | 1.13

Row | Compound | % Inhibition [%] | Z score
45 | CCc1cc(CC(=O)N2CCC(n3ccnn3)CC2)n(C)n1 | -8 | 0.96
46 | CC1CCN(C(=O)Cn2ccc(=O)[nH]c2=O)CC1 | -1 | 0.19
47 | CC(C)(C)c1ccc(S(=O)(=O)N2CC(=O)N3CCc4ccccc4[C@@H]3C2)cc1 | 4 | -0.73
48 | CC(C)OCCS(=O)(=O)NCC1(N)CCCCC1 | 6 | -1.03
49 | CC(C)n1ncc(C(=O)N[C@H]2CCCNC2=O)c1N | 0 | 0.06
50 | C[C@H]1c2nncn2CCN1C(=O)c1cc(C2CC2)nn1C | -15 | 2.32
51 | CC[C@H](C)S(=O)(=O)NC(=O)c1cnn(C)n1 | -3 | 0.51
52 | NC(=O)c1cc(N2CC(Cc3ccc(Br)cc3)C2)ncn1 | -5 | 0.82
53 | CC(C)(C)CN1C[C@@H](NC(=O)c2cnc(-c3cccnc3)nc2)CC1=O | -1 | 0.18
54 | CCCCc1nc(-c2nccn2CC(F)(F)F)c[nH]1 | -10 | 1.95
55 | CS(=O)(=O)Nc1ccc(OC(=O)c2cccc(-n3cnnn3)c2)cc1 | 0 | 0.09
56 | Cc1cc(C)c(C#N)c(N2C[C@@H](CN3CCCCCC3)[C@@H](CO)C2)n1 | -3 | 0.57
57 | CC(C)C[C@H]1COCCN1Cc1cccc(C(=O)Nc2ncn(C)n2)c1 | 7 | -0.74
58 | Cc1c(C(=O)N2CCN(C3CC3)CC2)nnn1Cc1ccc(F)cc1F | -11 | 2.23
59 | COc1ccc(NC(=O)NCCCn2c(-c3ccc(F)cc3)nc3cccnc32)c(OC)c1 | -10 | 0.87
60 | C[C@@H](C(=O)NCc1ccc(N2CCCC2)cc1)n1cncn1 | 0 | 0
61 | O=C(C1CCCCCC1)N1CCC(n2cc(-c3ccccc3)nn2)CC1 | -5 | 0.84
62 | CCCc1[nH]nc(-c2ccccc2)c1NC(=O)c1ccc(C(F)(F)F)cc1 | -13 | 1.76
63 | CCCc1cc(C(=O)N2CCC[C@@H]2CCc2ccccn2)no1 | -14 | 2.53
64 | C[C@H]1CCN(c2nc3ccccc3o2)CCS1(=O)=O | -14 | 2.25
65 | COc1ccc(CCNC(=O)C(=O)N2CCCCC2)cc1 | -9 | 1.17
66 | O=C(c1ccc2cc[nH]c2c1)N1CCC(c2nccn2CC2CC2)CC1 | -8 | 1.02

Row | Compound | % Inhibition [%] | Z score
67 | Cc1cc(C(=O)N2CCO[C@@H](C)C2)on1 | -4 | 0.44
68 | Cc1ccc(CN2CCN(C(=O)COc3cccnc3)CC2=O)cc1C | 6 | -1.05
69 | Cn1nc(C(=O)NC2CC2)c2c1CN(C(=O)c1cccc(C#N)c1)C2 | -5 | 0.58
70 | C[C@@H](c1cccs1)N(C)CC(=O)Nc1cccc(N2CCCC2=O)c1 | -6 | 0.52
71 | O=C1N[C@@H](COCc2ccccc2)C(=O)N2CCC[C@@H]12 | 7 | -1.02
72 | Cn1c(C(=O)N2CCC(c3nccn3CC(N)=O)CC2)cc2ccccc21 | -16 | 1.5
73 | C[C@H]1CN(C(=O)c2ccc(N(C)C)nn2)CCN1 | 0 | 0.03
74 | O=C(CCn1cnc2cc(-c3noc(-c4cnccn4)n3)ccc21)N1CCCCCC1 | -18 | 2.95
75 | CCCN(CC#N)CCN1CCOC1=O | 7 | -0.75
76 | CCc1sc(C(=O)N2CCC(C(=O)O)C3CCCC32)cc1C (stereo not given) | -1 | 0.24
77 | O=C1C(N2C(=O)[C@@H]3CCCN3C2=O)CCN1CCCc1ccccc1 (stereo not given in full) | -6 | 0.74
78 | COc1ccnc(C(=O)NC2CCN(c3cc(=O)[nH]c(N)n3)CC2)c1 | -11 | 1.61
79 | O=C(NC(N1CCCC[C@H]1c1cccnc1)(C(F)(F)F)C(F)(F)F)c1ccccc1Cl | -13 | 1.68
80 | O=C(NCc1ccncc1)C1(F)CCN(S(=O)(=O)c2cccnc2)CC1 | -3 | 0.36
81 | COc1ccc(OC)c(NC(=O)CN2CCN(C)c3ccccc32)c1 | -6 | 0.98
82 | CS(=O)(=O)c1cccc(C(=O)N2CCC[C@H]2c2cccs2)c1 | -11 | 2.14
83 | O=C1C(=O)N(CN2CCC(C(=O)N3CCCCCC3)CC2)c2ccc(F)cc21 | 6 | -0.83
84 | CCc1cnc(C)nc1N1CC[C@H](C(=O)NC)C1 | -7 | 1.32
85 | Cc1c(NC(=O)c2coc(C3CCC3)n2)cccc1N1CCOC1=O | -1 | 0.16
